M. abscessus ATCC 19977 and its deletion, point and complemented mutants after 5 days of drug at 37 °C plus 24 h of resazurin. Growth in % of untreated wells at the dose given (lower = more inhibition); checkerboards give % inhibition (higher = more inhibition); IC50 from the fitted curve (lower = more potent). No active / inactive call. IC50 values come from the same 384-well curves. Growth is not capped and can exceed 100%. The direction of the checkerboard scale is read from the raw signals. Capreomycin is a mixture.
How the values were obtained:
Assay in all cases: growth relative to untreated wells; higher = more growth (less inhibition)
[1] = system: Mycobacterium abscessus ATCC 19977 Eis2 E120fs
Description: (§1)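 384-well two-fold dose series, two replicates; 5 days at 37 °C, then 24 h with resazurin; fluorescence scaled to growth and killed controls.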

[2] = system: Mycobacterium abscessus ATCC 19977 Eis2 T258R
Description: as §1

[3] = system: Mycobacterium abscessus ATCC 19977 Eis2 Y227D
Description: as §1

[4] = system: Mycobacterium abscessus ATCC 19977 Eis2 Y255*
Description: as §1

[5] = system: Mycobacterium abscessus ATCC 19977 Eis2 Y284*
Description: as §1

[6] = system: Mycobacterium abscessus ATCC 19977 WhiB7 A51T
Description: as §1

[7] = system: Mycobacterium abscessus ATCC 19977 WhiB7 F24fs
Description: as §1

[8] = system: Mycobacterium abscessus ATCC 19977 WhiB7 L37P
Description: as §1

[9] = system: Mycobacterium abscessus ATCC 19977 WhiB7 T70fs
Description: as §1

[10] = system: Mycobacterium abscessus ATCC 19977 Δeis2
Description: as §1

[11] = system: Mycobacterium abscessus ATCC 19977 ΔwhiB7
Description: as §1

[12] = system: Mycobacterium abscessus ATCC 19977
Description: as §1

CS(=O)(=O)c1ccc([C@@H](O)[C@H](N)CF)cc1 [florfenicol amine]
Conditions | growth [%]
[1], 0.25 µg/mL | 102
[1], 0.5 µg/mL | 114
[1], 1 µg/mL | 107
[1], 2 µg/mL | 107
[1], 4 µg/mL | 109
[1], 8 µg/mL | 108
[1], 16 µg/mL | 111
[1], 32 µg/mL | 127
[1], 64 µg/mL | 60.2
[1], 128 µg/mL | 10.4
[1], 256 µg/mL | 12.3
[1], 512 µg/mL | 4.04
[2], 0.25 µg/mL | 104
[2], 0.5 µg/mL | 109
[2], 1 µg/mL | 103
[2], 2 µg/mL | 105.6
[2], 4 µg/mL | 99.3
[2], 8 µg/mL | 105
[2], 16 µg/mL | 104
[2], 32 µg/mL | 116.6
[2], 64 µg/mL | 66.2
[2], 128 µg/mL | 19.6
[2], 256 µg/mL | 12.9
[2], 512 µg/mL | 0.806
[3], 0.25 µg/mL | 113
[3], 0.5 µg/mL | 113
[3], 1 µg/mL | 101
[3], 2 µg/mL | 99.9
[3], 4 µg/mL | 110
[3], 8 µg/mL | 112
[3], 16 µg/mL | 115
[3], 32 µg/mL | 125
[3], 64 µg/mL | 57.9
[3], 128 µg/mL | 13.5
[3], 256 µg/mL | 12
[3], 512 µg/mL | 2.88
[4], 0.25 µg/mL | 104
[4], 0.5 µg/mL | 107
[4], 1 µg/mL | 103
[4], 2 µg/mL | 105
[4], 4 µg/mL | 103
[4], 8 µg/mL | 105.9
[4], 16 µg/mL | 115
[4], 32 µg/mL | 123
[4], 64 µg/mL | 41.3
[4], 128 µg/mL | 6.39
[4], 256 µg/mL | 6.78
[4], 512 µg/mL | 0.985
[5], 0.25 µg/mL | 103.7
[5], 0.5 µg/mL | 104
[5], 1 µg/mL | 102
[5], 2 µg/mL | 103.2
[5], 4 µg/mL | 98.4
[5], 8 µg/mL | 106
[5], 16 µg/mL | 112
[5], 32 µg/mL | 118
[5], 64 µg/mL | 41.8
[5], 128 µg/mL | 10.6
[5], 256 µg/mL | 13
[5], 512 µg/mL | 2.18
[6], 0.25 µg/mL | 104
[6], 0.5 µg/mL | 106
[6], 1 µg/mL | 99.8
[6], 2 µg/mL | 110
[6], 4 µg/mL | 106
[6], 8 µg/mL | 103
[6], 16 µg/mL | 106
[6], 32 µg/mL | 118
[6], 64 µg/mL | 128.8
[6], 128 µg/mL | 123
[6], 256 µg/mL | 0.654
[6], 512 µg/mL | -1.47
[7], 0.25 µg/mL | 107
[7], 0.5 µg/mL | 107
[7], 1 µg/mL | 103
[7], 2 µg/mL | 110
[7], 4 µg/mL | 103
[7], 8 µg/mL | 105
[7], 16 µg/mL | 101.2
[7], 32 µg/mL | 111
[7], 64 µg/mL | 123.7
[7], 128 µg/mL | 18.4
[7], 256 µg/mL | -1.49
[7], 512 µg/mL | -0.814
[8], 0.25 µg/mL | 102
[8], 0.5 µg/mL | 113
[8], 1 µg/mL | 109
[8], 2 µg/mL | 102
[8], 4 µg/mL | 105
[8], 8 µg/mL | 111
[8], 16 µg/mL | 109
[8], 32 µg/mL | 116.1
[8], 64 µg/mL | 126
[8], 128 µg/mL | 6.95
[8], 256 µg/mL | -1.71
[8], 512 µg/mL | -0.738
[9], 0.25 µg/mL | 102
[9], 0.5 µg/mL | 100.8
[9], 1 µg/mL | 93.7
[9], 2 µg/mL | 107
[9], 4 µg/mL | 98.8
[9], 8 µg/mL | 97.5
[9], 16 µg/mL | 97.4
[9], 32 µg/mL | 108
[9], 64 µg/mL | 123.8
[9], 128 µg/mL | 15.3
[9], 256 µg/mL | -3.95
[9], 512 µg/mL | -3.38
[10], 0.25 µg/mL | 96.9
[10], 0.5 µg/mL | 99.3
[10], 1 µg/mL | 96.5
[10], 2 µg/mL | 97.2
[10], 4 µg/mL | 96.2
[10], 8 µg/mL | 96.3
[10], 16 µg/mL | 101.6
[10], 32 µg/mL | 114
[10], 64 µg/mL | 114.8
[10], 128 µg/mL | 42
[10], 256 µg/mL | 27.55
[10], 512 µg/mL | 6.2
[11], 0.25 µg/mL | 101
[11], 0.5 µg/mL | 104
[11], 1 µg/mL | 101
[11], 2 µg/mL | 107
[11], 4 µg/mL | 103
[11], 8 µg/mL | 97.4
[11], 16 µg/mL | 93.25
[11], 32 µg/mL | 110
[11], 64 µg/mL | 142.8
[11], 128 µg/mL | 29.4
[11], 256 µg/mL | -2.8
[11], 512 µg/mL | -2.41
[12], 0.25 µg/mL | 101
[12], 0.5 µg/mL | 107.6
[12], 1 µg/mL | 112
[12], 2 µg/mL | 116
[12], 4 µg/mL | 121.6
[12], 8 µg/mL | 94.7
[12], 16 µg/mL | 35.9
[12], 32 µg/mL | 11.1
[12], 64 µg/mL | 5.76
[12], 128 µg/mL | 1.22
[12], 256 µg/mL | -1.27
[12], 512 µg/mL | -0.88

Source: the supplement of paper PMC12578646, “Prodrug florfenicol amine is activated by intrinsic resistance to target Mycobacterium abscessus” (Nature Microbiology, 2025)
